From the RNAGym collection of RNA variant scans (doi:10.7554/elife.90254)
Read counts are not given, so values of variants with three or more changes are uncertain.

B1: LINE1-mini (parent)
chain: GGCAGAGCUCAACACAGCGUGGCAAAGUGGCUGUGGCUAGACUGCC

Variants of: B1
Experiment: self-cleavage, relative activity (ratio to wild type); higher = more cleavage; in vitro, sequencing; the parent is a self-cleaving ribozyme
For U20C A26U G35A U38C, the self-cleavage was 0.03. U20C A39U A41U gave a self-cleavage of 0.4. Variant U20C C23A A41U has a self-cleavage of 0.25. U20C C23A G35U U43C showed a self-cleavage of 0.13. For U20C C23G A24G C31G, the self-cleavage was 0.11. Variant U20C C23G A25C U34A A41G has a self-cleavage of 0.06. Work on U20C C23G G40C yielded a self-cleavage of 0.06. In the case of U20C C23U A25C A26U G36U C37U, the self-cleavage is reported as 0.02. In the case of U20C C23U A26U G29A G40U C45U, the self-cleavage is reported as 0.16. U20C C23U A39C showed a self-cleavage of 0.02. With U20C C23U C46A the self-cleavage was 0.3. With U20C C31A A41G the self-cleavage was 0. U20C C31G U34C showed a self-cleavage of 0.06. U20C C31U G44C showed a self-cleavage of 0.02. With U20C C31U U32G G36C the self-cleavage was 0.13. In the case of U20C C37U A39C C42G, the self-cleavage is reported as 0.01. For U20C C37U C42G, the self-cleavage was 0.01. U20C G21A G22C showed a self-cleavage of 0.2. Work on U20C G21A G30C yielded a self-cleavage of 2.11. U20C G21A U38G gave a self-cleavage of 0.01. In the case of U20C G21U A24U, the self-cleavage is reported as 0.55. Work on U20C G21U A39U C42G C46A yielded a self-cleavage of 0.01. Variant U20C G21U C31A C37G has a self-cleavage of 0.7. U20C G21U G33A showed a self-cleavage of 1.18. U20C G21U G44C gave a self-cleavage of 0.02. Work on U20C G21U U28A C46A yielded a self-cleavage of 0.19. Work on U20C G22A A26G C37G A39C yielded a self-cleavage of 0. With U20C G22A C31A G44U the self-cleavage was 0.06. U20C G22A C37A U38C C42U showed a self-cleavage of 0.01. U20C G22C G27U U38G C45G gave a self-cleavage of 0.03. With U20C G22U A26G the self-cleavage was 0.25. In the case of U20C G22U U28C, the self-cleavage is reported as 0.49. With U20C G27A C37G the self-cleavage was 0.03. Variant U20C G27A G29C G35C G40U A41U U43A has a self-cleavage of 0.26. For U20C G27A G36C A39U C45A, the self-cleavage was 0.03. U20C G27C C37U gave a self-cleavage of 0.03. For U20C G27C G36C C37G, the self-cleavage was 0.01. U20C G27U A41C gave a self-cleavage of 0.06. Variant U20C G27U G29C has a self-cleavage of 0.18. Variant U20C G27U G36U has a self-cleavage of 0.06. For U20C G27U U28C G44C C46G, the self-cleavage was 0.06. Work on U20C G27U U34A yielded a self-cleavage of 0.09. With U20C G29C C31U G35A the self-cleavage was 0.08. In the case of U20C G29U G30U, the self-cleavage is reported as 0.49. In the case of U20C G29U G35U, the self-cleavage is reported as 0.06. Work on U20C G30A C45A yielded a self-cleavage of 0.32. For U20C G30A G35U, the self-cleavage was 0.07. U20C G30C U32C U34C gave a self-cleavage of 0.04. Variant U20C G30U C31A has a self-cleavage of 0.52. U20C G33C G36C showed a self-cleavage of 0.03. In the case of U20C G33U A41U, the self-cleavage is reported as 0.03. In the case of U20C G35C C45A, the self-cleavage is reported as 0.33. With U20C G35C G40A the self-cleavage was 0.02. For U20C G35C G44C, the self-cleavage was 0.02. U20C G36A U38A gave a self-cleavage of 0. With U20C G36C U38G C45U the self-cleavage was 0.01. Work on U20C G40C C46G yielded a self-cleavage of 0.06. U20C U28A C31G G44U gave a self-cleavage of 0.03. In the case of U20C U28C C45A, the self-cleavage is reported as 0.29. Work on U20C U32C C46U yielded a self-cleavage of 0.02. U20C U32C U43A showed a self-cleavage of 0.01. U20C U32G U34A C46A showed a self-cleavage of 0.04. With U20C U34A C45A the self-cleavage was 0.03. With U20C U34G G44C the self-cleavage was 0.06. U20C U34G U43C showed a self-cleavage of 0. With U20C U38C A39G the self-cleavage was 0.3. Work on U20C U38C U43A yielded a self-cleavage of 0.06. In the case of U20G A24C C31U C37A, the self-cleavage is reported as 0.11. Work on U20G A24C G29A C42A yielded a self-cleavage of 0.22. U20G A24C U43A G44A gave a self-cleavage of 0. With U20G A24G G29A C37U the self-cleavage was 0.02. With U20G A24G G44U the self-cleavage was 0.05. With U20G A24U C31U C42U the self-cleavage was 0. U20G A24U G33A C46A showed a self-cleavage of 0.03. In the case of U20G A25C C37G C45U, the self-cleavage is reported as 0.02. Work on U20G A25G G30U U34A C42A yielded a self-cleavage of 0.02. Variant U20G A25U G29A G35U has a self-cleavage of 0.1. Variant U20G A25U G30C has a self-cleavage of 0.14. For U20G A25U G40A G44C, the self-cleavage was 0.07. Variant U20G A25U U28A G40A has a self-cleavage of 0.24. In the case of U20G A26C G33U C42G, the self-cleavage is reported as 0.04. Variant U20G A26C G36C has a self-cleavage of 0.09. With U20G A26C G40U the self-cleavage was 0.23. Work on U20G A26U G35U yielded a self-cleavage of 0.26. In the case of U20G A26U G36U, the self-cleavage is reported as 0.05. U20G A26U U28A showed a self-cleavage of 0.14. For U20G A39U G44U, the self-cleavage was 0.03. In the case of U20G A41C U43A, the self-cleavage is reported as 0. U20G C23A A26U C46U gave a self-cleavage of 0.48. With U20G C23A A26U U28C G29U U34A C42U the self-cleavage was 0.02. U20G C23A A41C G44C gave a self-cleavage of 0.05. Variant U20G C23A C37U C46U has a self-cleavage of 0.02. Variant U20G C23A U38C has a self-cleavage of 0.19. In the case of U20G C23G C31A, the self-cleavage is reported as 0.04. Variant U20G C23G U28G G35C G36U C46U has a self-cleavage of 0.01. In the case of U20G C23U A41C, the self-cleavage is reported as 0.07. With U20G C23U C42U the self-cleavage was 0.23. In the case of U20G C23U G27A G33C, the self-cleavage is reported as 0.1. U20G C23U G36U gave a self-cleavage of 0.04. In the case of U20G C23U U38C, the self-cleavage is reported as 0.28. In the case of U20G C31G C37G A39C, the self-cleavage is reported as 0. With U20G C31G C46U the self-cleavage was 0.03. Variant U20G C31G U38C G40A has a self-cleavage of 0.01. Work on U20G C31G U43A G44C yielded a self-cleavage of 0.01. Variant U20G C31U C46A has a self-cleavage of 0.3. U20G C31U U38A A39C showed a self-cleavage of 0.08. For U20G C37A U43A, the self-cleavage was 0. Work on U20G C37U A39U yielded a self-cleavage of 0.03. U20G C37U C42U showed a self-cleavage of 0.01. For U20G C42U G44U, the self-cleavage was 0.17. In the case of U20G G21A A41G, the self-cleavage is reported as 0.03. U20G G21A C31U gave a self-cleavage of 0.22. Variant U20G G21A U28A G30A C31A has a self-cleavage of 1.36. Variant U20G G21C C31G has a self-cleavage of 0.05. U20G G21C C37A gave a self-cleavage of 0.02. U20G G21C G22A G35U showed a self-cleavage of 0.06. U20G G21C G40A A41U gave a self-cleavage of 0.01. In the case of U20G G21C U28C G36C G44U, the self-cleavage is reported as 0.03. Work on U20G G21U A25G yielded a self-cleavage of 0.24. With U20G G21U A39G C42A the self-cleavage was 0.02. In the case of U20G G21U C23U G36A, the self-cleavage is reported as 0.04. In the case of U20G G21U C31A U34G, the self-cleavage is reported as 0. U20G G21U C45G gave a self-cleavage of 1.27. U20G G21U G22U C31U G35C showed a self-cleavage of 0.08. In the case of U20G G21U G22U G35A, the self-cleavage is reported as 0.12. For U20G G21U G44C, the self-cleavage was 0.27. In the case of U20G G21U G44U, the self-cleavage is reported as 0.24. In the case of U20G G21U U28C, the self-cleavage is reported as 0.3. Variant U20G G21U U34C U43G G44A has a self-cleavage of 0.05. Work on U20G G22A C37A yielded a self-cleavage of 0.01. For U20G G22C C23U C42A, the self-cleavage was 0.35. For U20G G22C C31G A41U, the self-cleavage was 0.06. Variant U20G G22C G29A U34C has a self-cleavage of 0.1. With U20G G22C U28C U34G G44U the self-cleavage was 0.03. For U20G G22C U34A U38G, the self-cleavage was 0.04. U20G G22C U38C showed a self-cleavage of 0.06. Variant U20G G22U G29A A39G C46A has a self-cleavage of 0.14. U20G G22U G30C C42A gave a self-cleavage of 0.14. U20G G22U G30C G35C C45A gave a self-cleavage of 0.06. For U20G G22U G33C C42U C45A, the self-cleavage was 0.09. Variant U20G G22U U34G G40A has a self-cleavage of 0.03. With U20G G27A C45G the self-cleavage was 0.04. U20G G27A U28C G29A gave a self-cleavage of 0.89. With U20G G27U G35A the self-cleavage was 0.05. For U20G G29A A39U C42A, the self-cleavage was 0.11. U20G G29C A41U C45G C46A gave a self-cleavage of 0.26. U20G G29C C42A gave a self-cleavage of 0.17. For U20G G29C U34A, the self-cleavage was 0.36. U20G G29U C31G U32A showed a self-cleavage of 0.06. Variant U20G G29U C42A has a self-cleavage of 0.04. U20G G30A C42U showed a self-cleavage of 0.4. Work on U20G G30A C45U yielded a self-cleavage of 0.71. In the case of U20G G30A G33A, the self-cleavage is reported as 0.02. Variant U20G G30C C31A G40A has a self-cleavage of 0.04. With U20G G30C U43C the self-cleavage was 0.02. With U20G G30U A41C the self-cleavage was 0.02. Variant U20G G30U C37A has a self-cleavage of 0.05. Variant U20G G30U C37G G40C has a self-cleavage of 0.03. Work on U20G G30U G36A yielded a self-cleavage of 0.42. For U20G G30U U43A, the self-cleavage was 0.02. For U20G G33A C42A, the self-cleavage was 0.24. U20G G33C C42A C46G showed a self-cleavage of 0.02. U20G G35A C42A gave a self-cleavage of 0.02. U20G G35U C46U showed a self-cleavage of 0.04. Variant U20G G35U G36U has a self-cleavage of 0.16. Variant U20G G35U G40C has a self-cleavage of 0.02. With U20G G40A G44U the self-cleavage was 0.04.
